Some of these densities may be calculated back from excess volumes.
Assay: xn = mol fraction of the nth substance listed
Settings: 101 kPa

CC[n+]1ccn(C)c1.COS(=O)(=O)[O-] + CCCCCCCO
mass density [kg/m3]
Settings | x1 = 0.0836 | x1 = 0.1703 | x1 = 0.2602 | x1 = 0.3537 | x1 = 0.4508 | x1 = 0.5518 | x1 = 0.657 | x1 = 0.7665 | x1 = 0.8808
298.15 K | 865.2 | 911.8 | 958.5 | 1005.4 | 1052.4 | – | 1146.3 | – | 1239.4
303.15 K | 861.7 | 908.3 | 955 | 1001.9 | 1048.9 | 1096 | 1142.9 | – | 1236.1
308.15 K | 858.1 | 904.7 | 951.5 | – | 1045.4 | 1092.5 | 1139.5 | 1186.4 | 1233

— a compilation of properties of binary mixtures (doi:10.1016/j.molliq.2017.05.115)
